Measurements published in PubChem BioAssay AID1346428 (National Center for Advancing Translational Sciences (NCATS), 2018).
The campaign covered roughly 48,000 compounds. About 1,200 (2.5%) were called active. Inconclusive results (about 2%) are left out.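 The calls were made as follows: active = activation of at least 60% and not above a set upper limit (about 1 call in 100 departs from these limits); inconclusive = activation of 40% to 60%, or above that upper limit; inactive = activation under 40%.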 Some of the results follow.

Molecular target: Probable G-protein coupled receptor 32 (Homo sapiens) (UniProt O75388)
Sequence of UniProt O75388 (O75388 whole entry, looked up): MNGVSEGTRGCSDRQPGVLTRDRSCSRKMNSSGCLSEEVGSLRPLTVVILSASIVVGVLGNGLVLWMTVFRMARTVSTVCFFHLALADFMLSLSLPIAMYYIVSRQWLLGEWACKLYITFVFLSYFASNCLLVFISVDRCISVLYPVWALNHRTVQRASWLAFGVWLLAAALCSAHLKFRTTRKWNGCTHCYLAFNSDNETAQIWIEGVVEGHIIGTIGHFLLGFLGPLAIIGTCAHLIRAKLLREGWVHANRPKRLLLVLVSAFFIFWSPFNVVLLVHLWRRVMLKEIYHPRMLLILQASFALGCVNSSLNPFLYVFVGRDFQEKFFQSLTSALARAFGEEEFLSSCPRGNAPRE
Test: qHTS for Agonists of Human Resolvin D1 Receptor DRV1; also: 0% is about no effect
Details: CHO-K1 GPR32 beta-arrestin PathHunter luminescence, 90 min; at 76.9 µM; hits give high values; zero percent set by DMSO-only wells
Procedure, shortened: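 Step 1: seed CHO-K1 GPR32 beta-arrestin cells, 2,500/well, overnight at 37 °C. Step 2: add compounds, 90 min at 37 °C. Step 3: detection reagent, 1 h ambient, then luminescence.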

Compound | activation
CCOC(=O)c1ccc(NC(=O)CSc2nc(-c3ccc(OC)cc3)cc(C(F)(F)F)c2C#N)cc1 | inactive: 7.96%
Cc1ccc(Nc2ccc3cc(S(=O)(=O)N4CCCCC4)ccc3n2)cc1F | inactive: 5.64%
COc1ccc(-c2cc3nc(C)c(CCC(=O)NCc4ccccc4Cl)c(C)n3n2)c(OC)c1 | inactive: -4.64%
O=C(Cc1ccccc1)N(Cc1cccnc1)c1nc2c(Cl)cccc2s1 | inactive: -26.6%
COc1ccc(N(CC(=O)N2CCN(c3ccccc3)CC2)S(=O)(=O)c2c(C)nn(C)c2C)cc1 | inactive: 2.48%
O=C(CCC1CCCC1)N1CCc2c([nH]c3ccccc23)C1c1ccc(F)cc1 (stereo not drawn) | inactive: -40.2%
CC(=O)c1ccc(NC(=O)c2cn(-c3ccccc3)nc2-c2ccc(Br)cc2)cc1 | inactive: -0.309%
N#Cc1nc(COc2ccccc2Cl)oc1NCCc1ccccc1 | inactive: -34.3%
CCOc1ccc(NC(=O)NCCN2CCN(c3cccc(C)c3C)CC2)cc1 | inactive: 7.46%
CCc1cccc(C)c1NC(=O)C1CCN(S(=O)(=O)c2c(C)noc2/C=C/c2c(C)cc(C)cc2C)CC1 | inactive: -5.83%
CCc1nnc(SC(CC)C(=O)Nc2ccc(OC)c(Cl)c2)c2cc3occc3n12 (stereo not drawn) | inactive: -26.9%
COc1ccccc1NC(=O)c1c(C)cc(C)nc1SCC(=O)Nc1ccc(C)c(C)c1 | inactive: -32.2%
COc1cccc(-n2ccn(CC(=O)NCc3ccc(C)cc3)c(=O)c2=O)c1 | inactive: -0.585%
COc1ccccc1Nc1nc(-c2ccc(F)cc2)c2c(n1)-c1ccccc1OC2 | inactive: -3.06%
Cc1ccc(CCNC(=O)CN(c2cc(C)cc(C)c2)S(=O)(=O)c2c(C)noc2C)cc1 | inactive: -13.2%
COc1ccccc1CNC(=O)CCCn1c(=O)c2ccccc2n(Cc2ccc(F)cc2)c1=O | inactive: -7.13%
CCOc1ccc(C2CC(=O)NC(NC(=O)c3cccc(Cl)c3)=N2)cc1 (stereo not drawn) | inactive: -3.23%
Cc1ccc(NC(=O)Nc2cccc(C)n2)cc1 | active: 64.5%
Cc1cc(C)c(NS(=O)(=O)c2ccc3c(c2)CC(C)N3C(=O)C2CCC2)c(C)c1 (stereo not drawn) | inactive: 11.8%
CN(C(=O)c1cc2c(Cl)nc3ccccc3c2s1)c1cccc(C(F)(F)F)c1 | inactive: -19.2%
COc1cccc(NC(=O)N(Cc2c[nH]c3ccccc23)C2CCCCCC2)c1 | inactive: -2.38%
CCn1c(C(=O)Nc2c(C)cccc2C)cc2sc(Cl)cc21 | inactive: -16.2%
O=C(Cn1nc(-c2ccccc2)c2c(c1=O)CCCC2)Nc1ccc(F)c(Cl)c1 | inactive: -21.2%
Cc1ccccc1NS(=O)(=O)c1ccc2[nH]cc(C(=O)NC3CCCCC3)c(=O)c2c1 | inactive: -9.34%
COc1cccc(-c2noc(COc3ccc(C(C)(C)C)cc3)n2)c1 | inactive: -5.73%
COc1ccccc1CNCCCCCCNCCCCCCCCNCCCCCCNCc1ccccc1OC | inactive: -13%
CCn1c(=O)c2cc(C(=O)NC3CCC(C)CC3)sc2c2ccccc21 (stereo not drawn) | inactive: -4.24%

Compound | activation
Cc1ccc(NC(=O)c2oc3ccc(S(=O)(=O)N4CCCCCC4)cc3c2C)c(C)c1 | inactive: 0.894%
Cc1ccc(NC(=O)c2c(NC(=O)c3ccc(F)cc3)sc3c2CCCC3)cc1C | inactive: -9.27%
COc1ccc(OC)c(NC(=O)Cn2c(=O)n(-c3cccc(C)c3)c(=O)c3c2c2cc(C)ccc2n3C)c1 | inactive: 31.5%
COc1ccc(-n2c(C)nnc2SCc2nc(-c3ccc(OC)c(OC)c3)no2)cc1 | inactive: 5.49%
COc1ccc(NC(=O)c2cc3c(=O)n(Cc4cccs4)ccc3nc2C)cc1 | inactive: -11.6%
O=C(c1cc(-c2cccc(Cl)c2)on1)N1CCCCC1 | active: 65.7%
CCOC(=O)c1cc(OC(=O)c2cc(OC)c(OC)c(OC)c2)n(-c2ccccc2)n1 | inactive: 7.58%
CCOC(=O)c1c(C)oc2nc(C)nc(N3CCN(c4cc(Cl)ccc4C)CC3)c12 | inactive: 2.43%
COc1cccc(CNC(=O)CCCn2nc(C)c3sc4ccccc4c3c2=O)c1 | inactive: -14.5%
CCc1ccccc1N(C)C(=O)Cn1cnc2sc(C)c(S(=O)(=O)N3CCC(C)CC3)c2c1=O | inactive: -9.22%
CCOc1ccc(-n2c(SCC(=O)Nc3cc(C)on3)nc3c([nH]c4ccccc43)c2=O)cc1 | inactive: -5.28%
Cc1cc(OCC(=O)Nc2c(C(=O)c3ccccc3)oc3ccccc23)cc(C)c1Cl | inactive: -15.6%
CC(C)CN(CCCNC(=O)c1cc(-c2cccs2)nc2ccccc12)CC(C)C | inactive: 2.87%
Cc1nn(C)c2c1c(-c1ccccc1)cc(=O)n2Cc1ccccc1C#N | inactive: 3.31%
CCOC(=O)C1CCCN(c2c(C(=O)c3ccc(OCC)cc3)cnc3ccccc23)C1 (stereo not drawn) | inactive: -17.5%
CCN1CCN(CCCNC(=O)c2cnn(-c3ccccc3Cl)c2C2CCN(C(=O)OC(C)(C)C)CC2)CC1 | inactive: -14.8%
Cc1cc(F)ccc1NC(=O)C1CCN(C(=O)c2cnn(-c3ccccc3)c2-n2cccc2)CC1 | inactive: -18.7%
CCCCc1nn2c(=O)cc(COC(=O)c3cccc(Cl)c3)nc2s1 | inactive: 0%
O=C(c1ccccc1)c1cn(Cc2ccc(F)cc2)c2ccccc2c1=O | inactive: -8.64%
Cc1cccc(C)c1NC(=O)Cn1nnc(C(=O)Nc2c(C)cccc2C)c1N | inactive: 19.4%
O=C(CCC1N=C2c3ccccc3N=C(SCc3cccc(F)c3)N2C1=O)NCCc1ccccc1 (stereo not drawn) | inactive: -7.08%
COC(=O)c1ccccc1NC(=O)c1ccc(-c2nc(COc3ccccc3)c(C)o2)cc1 | inactive: -5.19%
Cc1ccc(CNC(=O)CN2C(=O)CSc3c2c(C)nn3-c2ccccc2)cc1 | inactive: -7.22%
CCOC(=O)c1c(C)[nH]c(CCC(=O)NCc2cccc(C)c2)c1C | inactive: -7.1%
COCCCn1c(=N)c(C(=O)NCc2cccnc2)cc2c(=O)n3cccc(C)c3nc21 | inactive: -5.32%
CN1C(=O)Cc2cc(S(=O)(=O)CCC(=O)Nc3ccc(Cl)c(C(F)(F)F)c3)ccc21 | inactive: -5.31%
